Out of some 410,000 compounds screened, about 6,400 (1.6%) were called active. Inconclusive results, whose numbers are uncertain, are shown with a selection of clear calls. Calls follow the shape of the dose curve; as a rule, active = well fitted inhibition curve with a large enough effect; inconclusive = small, poorly fitted or top-dose-only effect; inactive = no such curve, though single readings can be large or run the other way. No potency is given beside an inconclusive call; the fits are too rough.
Each compound was assayed against Glucagon-like peptide 1 receptor (Homo sapiens) (UniProt P43220) (assay: qHTS of GLP-1 Receptor Inverse Agonists (Inhibition Mode)). Conditions: HEK293 GLP-1R CRE-luciferase, luminescence, 24 h, GLP-1R form is constitutively active; series mostly up to 38.3 µM.
How it was run: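 Using stably transfected HEK293 (constitutively active GLP-1R, cAMP-luciferase reporter), compounds were incubated 24 hr and luciferase measured by luminescence.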
Also: nearly all actives have a fitted effect of over 55% in size.
Potency is read from the fitted curve at half-maximal effect; tags tell the direction and shape of the fitted curve.

Chain of UniProt P43220 (P43220 whole entry, looked up): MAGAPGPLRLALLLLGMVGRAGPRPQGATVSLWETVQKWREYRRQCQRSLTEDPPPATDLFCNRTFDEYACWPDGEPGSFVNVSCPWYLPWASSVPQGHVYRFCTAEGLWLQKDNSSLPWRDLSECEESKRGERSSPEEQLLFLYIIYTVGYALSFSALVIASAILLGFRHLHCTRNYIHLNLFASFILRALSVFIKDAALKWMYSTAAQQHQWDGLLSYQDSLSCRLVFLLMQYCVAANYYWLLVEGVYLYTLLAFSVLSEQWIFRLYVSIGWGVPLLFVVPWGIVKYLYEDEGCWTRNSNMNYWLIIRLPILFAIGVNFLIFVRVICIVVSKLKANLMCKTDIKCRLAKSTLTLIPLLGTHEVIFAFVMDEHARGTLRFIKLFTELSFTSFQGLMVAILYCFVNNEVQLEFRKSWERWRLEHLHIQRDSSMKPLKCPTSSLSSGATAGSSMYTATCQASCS

Row | Structure (SMILES) | Potency
1 | Nc1c(C(=O)Nc2ccccc2)sc2nc3c(c(-c4ccco4)c12)CCCC3 | inconclusive [inhibitor, full curve, poor fit]
2 | CCOc1ccc(C(=O)Nc2cccc(SC)c2)cc1 | inconclusive [inhibitor, single point]
3 | O=[N+]([O-])c1ccc2oc(C(O)c3cccc(Cl)c3)cc2c1 (stereo not drawn) | inconclusive [inhibitor, partial curve, poor fit]
4 | COc1ccc(C2CC(c3ccccc3)Nc3nc(NC(=O)c4cccs4)nn32)cc1 (stereo not drawn) | inconclusive [inhibitor, partial curve, poor fit]
5 | COC(=O)C1=C(c2ccccc2)c2ccccc2S(=O)(=O)N1CC(=O)Nc1ccc(F)c(F)c1 | inconclusive [inhibitor, single point]
6 | O=C1C=CC2(C=C1)O[C@H](Cc1ccccc1)[C@@H](Cc1ccccc1)O2 | inconclusive [inhibitor, full curve, poor fit]
7 | O=[N+]([O-])c1cc(-c2ccccc2)cc([N+](=O)[O-])c1O | inconclusive [inhibitor, single point]
8 | CC(=O)c1c(C)oc2ccc(N(C(C)=O)S(=O)(=O)c3ccc(Cl)c([N+](=O)[O-])c3)cc12 | inconclusive [inhibitor, full curve, poor fit]
9 | Cc1ccc(S(=O)(=O)Nc2nc3ccccc3nc2NCc2ccco2)cc1C | inconclusive [inhibitor, partial curve, poor fit]
10 | CCC(=O)c1ccc(OCC(=O)Nc2cccc(S(=O)(=O)N3CCCCCC3)c2)cc1 | inconclusive [inhibitor, partial curve, poor fit]
11 | C#Cc1ccc(NC(=O)C2(C)CCN2C(=O)Cc2ccc(-c3ccccc3)cc2)cc1 (stereo not drawn) | inconclusive [inhibitor, partial curve, poor fit]
12 | COc1ccc(Oc2c(-c3ccc(O)cc3O)n[nH]c2C)cc1 | inconclusive [inhibitor, single point]
13 | CCN1c2ccccc2-c2nc(SCC(=O)NCc3ccc(C)cc3)ncc2S1(=O)=O | inactive
14 | Cc1ccc(NC(=O)N2CCCCCC2)cc1 | inconclusive [inhibitor, single point]
15 | O=C(CC(c1ccccc1)c1ccccc1O)NCCN1CCOCC1 (stereo not drawn) | inactive
16 | O=C(COC(=O)c1ccccc1F)NNC(=O)c1ccccc1 | inactive
17 | O=c1[nH]c(-c2ccccn2)nc2ccccc12 | inconclusive [inhibitor, full curve, poor fit]
18 | O=S(=O)(NCc1cc(-c2ccccc2Cl)no1)c1ccccc1 | inconclusive [inhibitor, single point]
19 | CC(C)(C#CC(O)(c1ccccc1)c1ccccc1)N1CCCCC1 | inconclusive [inhibitor, partial curve, poor fit]
20 | CCCNc1nc2c(c(=O)[nH]c(=O)n2C)n1CCOc1ccccc1 | inactive
21 | CCOC(=O)C(c1ccccc1)N1CCN(c2ccc(OC)cc2)CC1 (stereo not drawn) | inconclusive [inhibitor, partial curve, poor fit]

Row | Structure (SMILES) | Potency
22 | CCN1CCN(C2=C(NS(=O)(=O)c3ccc(C)cc3)C(=O)c3ccccc3C2=O)CC1 | inconclusive [inhibitor, single point]
23 | O=S1(=O)N[C@H](Cc2ccccc2)COc2cc(N3CCC[C@@H]3CO)ccc21 | inconclusive [inhibitor, partial curve, poor fit]
24 | CCN(CC)CCNC(=O)c1c(C)n(-c2ccccc2)c2cc(Br)c(OC)cc12 | inconclusive [inhibitor, full curve, poor fit]
25 | COc1ccc(C=CC(O)CCN2CCC3CCC(C3)C2)cc1 (stereo not drawn) | inconclusive [inhibitor, partial curve]
26 | C(=C\c1ccccc1)/CN1CCN(C(c2ccccc2)c2nnnn2C2CCCC2)CC1 (stereo not drawn) | inconclusive [inhibitor, single point]
27 | CCN1C(C(=O)c2ccccc2)=C(Nc2ccccc2C)c2ccccc2S1(=O)=O | inconclusive [inhibitor, partial curve]
28 | Cc1noc(/C=C/N(C)C)c1S(=O)(=O)NC1CCCCC1 | inconclusive [inhibitor, partial curve, poor fit]
29 | CCc1ccc2c(c1)NC(c1ccc(C)cc1)=NC(c1cccs1)=N2 | inconclusive [inhibitor, partial curve, poor fit]
30 | CCOC(=O)c1ccccc1NC(=O)Cc1ccc(S(=O)(=O)N2CCCC2)s1 | inconclusive [inhibitor, partial curve, poor fit]
31 | CCCOc1ccccc1C1CC(=O)NC(C)=C1C(=O)OCC(C)C (stereo not drawn) | inconclusive [inhibitor, single point]
32 | Cc1cc(C(=O)COC(=O)c2ccc(CO)cc2)c(C)n1CC1COc2ccccc2O1 (stereo not drawn) | inconclusive [inhibitor, single point]
33 | CN(C)/N=C1\CCS(=O)(=O)c2sccc21 | inactive
34 | O=C(c1cc(-c2ccc(O)cc2)on1)N1CCCC1 | inconclusive [inhibitor, single point]
35 | CC(C)c1cnc2c(c1SCC(=O)N1CCCCC1)c(=O)n(C)c(=O)n2C | inactive
36 | O=C(c1cccs1)c1ccccc1Cc1cccs1 | inconclusive [inhibitor, single point]
37 | COc1ccc(/C=C/C(=O)Nc2sc(C)c(C)c2C(=O)O)cc1 | inconclusive [inhibitor, single point]
38 | Nc1ccc(-c2nc3c(Cl)c(N)ccc3[nH]2)cc1 | inactive
39 | Cc1cccc(N2CCN(S(=O)(=O)c3cc(-c4cc(C)no4)ccc3C)CC2C)c1 (stereo not drawn) | active: 3.98 µM
40 | CSc1ccc(/C=N/NC(=O)c2ccc(-n3cnnn3)cc2)cc1 | inconclusive [inhibitor, partial curve, poor fit]
41 | CC(CCc1ccccc1)NC(=O)Cc1ccc(Br)cc1 (stereo not drawn) | inconclusive [inhibitor, partial curve]
42 | CC(C)Cc1nn2c(=O)cc(COC(=O)c3ccc(NC(=O)CCc4ccccc4)cc3)nc2s1 | inactive

Row | Structure (SMILES) | Potency
43 | O=C(NCc1nc(-c2ccc(Cl)cc2)no1)c1ccc2c(c1)OCO2 | inconclusive [inhibitor, single point]
44 | COc1ccc(F)cc1-c1cc(NC=O)c2ncc(-c3cccc(C(F)(F)F)c3)n2c1 | inconclusive [inhibitor, full curve, poor fit]
45 | O=c1c(N2CCc3ccccc3C2)csc2ccc(Cl)cc12 | inactive
46 | O=S(=O)(/C=C/c1ccccc1)N1CCN(Cc2ccc3c(c2)OCO3)CC1 | inconclusive [inhibitor, partial curve, poor fit]
47 | Cn1cccc1C(=O)NCC(c1ccc(F)cc1)N1CCOCC1 (stereo not drawn) | inactive
48 | CCOC(=O)c1sc(-c2ccccc2)cc1NC(=O)Nc1ccccc1 | inconclusive [inhibitor, single point]
49 | COCCN1CCN(C(=O)c2cc(COc3ccc(F)c(F)c3)on2)CC1 | inactive
50 | O=C(COC(=O)c1cccc(NC(=O)c2ccco2)c1)c1ccc(Br)cc1 | inconclusive [inhibitor, partial curve, poor fit]
51 | COC(=O)Cn1ncc(N2C3CC(CC(C)(C)C3)C2C)c(Cl)c1=O (stereo not drawn) | inconclusive [inhibitor, partial curve, poor fit]
52 | Cc1nc(-c2ccc(F)cc2)c(CC(=O)NCC(=O)Nc2ccc(F)c(F)c2)s1 | inconclusive [inhibitor, single point]
53 | C=COCCn1c(-c2nonc2N)nc2ccccc21 | inconclusive [inhibitor, single point]
54 | Cc1cc(C)cc(NS(=O)(=O)c2ccc(N3CCCCS3(=O)=O)cc2)c1 | inconclusive [inhibitor, single point]
55 | CCCN(CC(=O)Nc1ccccc1C)C(=O)c1cccc(S(=O)(=O)N2CCc3ccccc3C2)c1 | inconclusive [inhibitor, partial curve, poor fit]
56 | c1ccc(-c2cnc(CSc3ncnc4sccc34)o2)cc1 | inconclusive [inhibitor, single point]
57 | CC1(C(=O)Nc2cccc(C#N)c2)CCN1C(=O)c1ccccc1CCc1ccccc1 (stereo not drawn) | inconclusive [inhibitor, single point]
58 | COc1cccc(/C=N/n2c(C)nc3ccccc32)c1OC | inactive
59 | CSCCC(NC(=O)COc1ccccc1)C(=O)N1CCN(c2cccc(C(F)(F)F)c2)CC1 (stereo not drawn) | inconclusive [inhibitor, partial curve, poor fit]
60 | Cc1ccc(O)c(C2=Nc3ccccc3N=C(c3cccs3)C2)c1 | inconclusive [inhibitor, partial curve, poor fit]
61 | CC(C)(C)NCC(O)COc1ccccc1C(C)(C)C (stereo not drawn) | active: 7.94 µM
62 | CCC(=O)NC(c1ccccc1Cl)c1c(O)ccc2ccccc12 (stereo not drawn) | inconclusive [inhibitor, partial curve, poor fit]
63 | C[C@@]12C(=O)N(c3cccc(Br)c3)C(=O)N1[C@H](c1ccc(Cl)cc1)[C@@H]1C(=O)N(C3CCCCC3)C(=O)[C@@H]12 | inconclusive [inhibitor, full curve, poor fit]

— PubChem BioAssay AID624417 (National Center for Advancing Translational Sciences (NCATS), 2012)
